# According to ChEMBL document CHEMBL5606460, “ASAP - DENV-2 NS2B-NS3 protease fluorescence single point” (2024):
# About 110 (5.5%) of roughly 2,000 compounds showed an effect of 50% or more. Some of the results follow.
# Biological target: Genome polyprotein (dengue virus type 2) (UniProt P29990)
# [1] = Thailand/16681/1984, Concentration 25.0 uM, Number of replicates 1.0
structure (smiles),measurement,setting,value
O=Cc1ccc(N2CCC(C(=O)Nc3ncc(Br)c(C(F)(F)F)n3)CC2)cc1,inhibition,[1],13.3%
Cc1nc(NC(=O)C2CCN(c3ccc(C=O)cc3)CC2)ccc1Br,inhibition,[1],12.1%
Cc1ccc(CNC(=O)C2CCN(c3ccc(C=O)cc3)CC2)cc1Cl,inhibition,[1],1.22%
O=Cc1ccc(N2CCC(C(=O)N[C@H](CO)CC3CCCCC3)CC2)cc1,inhibition,[1],11.2%
O=Cc1ccc(N2CCC(C(=O)Nc3ccc([N+](=O)[O-])cc3)CC2)cc1,inhibition,[1],24.6%
CCc1noc(Cn2cc(C3CCNCC3)c(C)n2)n1,inhibition,"Thailand/16681/1984, Concentration 49.5 uM, Number of replicates 2.0, Standard deviation 0.763376195696472 %",-3.65%
same,inhibition,"Thailand/16681/1984, Concentration 99.01 uM, Number of replicates 2.0, Standard deviation 1.694047900235964 %",-3.73%
same,inhibition,"Thailand/16681/1984, Concentration 198.0 uM, Number of replicates 2.0, Standard deviation 0.453806581859591 %",-4.1%
Cc1cc(CO)c2cccc(C[C@H](NC(=O)c3ccno3)C(=O)O)c2n1,inhibition,"Thailand/16681/1984, Concentration 49.95 uM, Number of replicates 2.0, Standard deviation 0.19795194633808622 %",5.14%
same,inhibition,"Thailand/16681/1984, Concentration 99.9 uM, Number of replicates 2.0, Standard deviation 0.9228743689775827 %",11.5%
O=Cc1ccc(N2CCC(C(=O)Nc3ccccc3)CC2)cc1,inhibition,[1],12.1%
Cc1cc(CO)c2cccc(Cc3cccc(NC(=O)[C@@H]4CCCC[C@H]4C(=O)O)c3)c2n1,inhibition,"Thailand/16681/1984, Concentration 49.95 uM, Number of replicates 2.0, Standard deviation 2.18231720147964 %",2.94%
same,inhibition,"Thailand/16681/1984, Concentration 99.9 uM, Number of replicates 2.0, Standard deviation 0.994920528996893 %",9.01%
O=Cc1ccc(N2CCC(C(=O)Nc3cc(F)c(F)cc3Br)CC2)cc1,inhibition,[1],12.6%
Cc1cc(CO)c2cccc(Cc3ccccc3NC(=O)[C@@H]3CC(=O)CCN3)c2n1,inhibition,"Thailand/16681/1984, Concentration 49.95 uM, Number of replicates 2.0, Standard deviation 0.7311314963621214 %",7.33%
same,inhibition,"Thailand/16681/1984, Concentration 99.9 uM, Number of replicates 2.0, Standard deviation 0.026310423064016666 %",18.5%
CN1CCN2CCN(C(=O)C3CCN(c4ccc(C=O)cc4)CC3)C[C@H]2C1,inhibition,[1],12%
CC(=O)Nc1ccc(C(=O)Nc2ccccc2Cc2cccc3c(CO)cc(C)nc23)cn1,inhibition,"Thailand/16681/1984, Concentration 49.95 uM, Number of replicates 2.0, Standard deviation 1.6858954774753503 %",2.11%
same,inhibition,"Thailand/16681/1984, Concentration 99.9 uM, Number of replicates 2.0, Standard deviation 1.2573247847769908 %",6.57%
CCCCCNC(=O)c1cc(Cl)ccc1NS(=O)(=O)c1ccc(Oc2ccccc2Cl)cc1,inhibition,"Thailand/16681/1984, Concentration 49.5 uM, Number of replicates 2.0, Standard deviation 0.23227296801747743 %",78.7%
same,inhibition,"Thailand/16681/1984, Concentration 99.01 uM, Number of replicates 2.0, Standard deviation 0.006678758202430312 %",76.9%
same,inhibition,"Thailand/16681/1984, Concentration 198.0 uM, Number of replicates 2.0, Standard deviation 0.04271599955318515 %",65.6%
CNc1cc(COc2cccnc2F)nc(N2CCNCC2)n1,inhibition,"Thailand/16681/1984, Concentration 49.5 uM, Number of replicates 2.0, Standard deviation 2.2039377761224554 %",-4.34%
same,inhibition,"Thailand/16681/1984, Concentration 99.01 uM, Number of replicates 2.0, Standard deviation 2.2907073476131674 %",-4.13%
same,inhibition,"Thailand/16681/1984, Concentration 198.0 uM, Number of replicates 2.0, Standard deviation 2.1078244169042724 %",-4.06%
O=Cc1ccc(N2CCC(C(=O)Nc3ccnc(Br)c3)CC2)cc1,inhibition,[1],11.9%
Cc1cc(CO)c2cccc(Cc3ccccc3NC(=O)Cc3csc(Cc4ccccc4)n3)c2n1,inhibition,"Thailand/16681/1984, Concentration 49.95 uM, Number of replicates 2.0, Standard deviation 1.2441700790071646 %",-0.54%
same,inhibition,"Thailand/16681/1984, Concentration 99.9 uM, Number of replicates 2.0, Standard deviation 1.3300226430755788 %",0.901%
CC(C)(CO)NC(=O)c1cc(Cl)cc(NC(=O)c2cc(C(N)=O)[nH]n2)c1,inhibition,"Thailand/16681/1984, Concentration 49.5 uM, Number of replicates 2.0, Standard deviation 1.4418289783075546 %",-1.68%
same,inhibition,"Thailand/16681/1984, Concentration 99.01 uM, Number of replicates 2.0, Standard deviation 0.879186931981426 %",-0.744%
same,inhibition,"Thailand/16681/1984, Concentration 198.0 uM, Number of replicates 2.0, Standard deviation 2.4633202398415794 %",1.6%
O=Cc1ccc(N2CCC(C(=O)NC34CC5CC(CC(C5)C3)C4)CC2)cc1,inhibition,[1],13.2%
O=C(O)c1cccc(NC(=O)c2ccc(Br)cc2)c1,inhibition,"Thailand/16681/1984, Concentration 49.5 uM, Number of replicates 2.0, Standard deviation 0.8423395017617462 %",0.479%
same,inhibition,"Thailand/16681/1984, Concentration 99.01 uM, Number of replicates 2.0, Standard deviation 1.3399119348291484 %",0.474%
same,inhibition,"Thailand/16681/1984, Concentration 198.0 uM, Number of replicates 2.0, Standard deviation 0.6059687589825926 %",2.3%
CCn1ccnc(N2CC[C@H](C(C)(C)C)C2)c1=O,inhibition,"Thailand/16681/1984, Concentration 49.5 uM, Number of replicates 2.0, Standard deviation 0.3173030547764478 %",3.7%
same,inhibition,"Thailand/16681/1984, Concentration 99.01 uM, Number of replicates 2.0, Standard deviation 0.33036520606694414 %",9.97%
same,inhibition,"Thailand/16681/1984, Concentration 198.0 uM, Number of replicates 2.0, Standard deviation 0.16055589059134015 %",19.7%
C[C@@H](CNC(=O)C1CCN(c2ccc(C=O)cc2)CC1)N(C)c1ccccc1,inhibition,[1],14.4%
O=C(NCCc1ncc[nH]1)c1ccn([C@H]2CCCNC2)n1,inhibition,"Thailand/16681/1984, Concentration 49.5 uM, Number of replicates 2.0, Standard deviation 2.386405138905033 %",-4.85%
same,inhibition,"Thailand/16681/1984, Concentration 99.01 uM, Number of replicates 2.0, Standard deviation 1.7399173269947343 %",-3.44%
same,inhibition,"Thailand/16681/1984, Concentration 198.0 uM, Number of replicates 2.0, Standard deviation 2.078401786252514 %",-3.46%
Cc1nn(Cc2ccccc2OC(F)F)cc1C1CCNCC1,inhibition,"Thailand/16681/1984, Concentration 49.5 uM, Number of replicates 2.0, Standard deviation 0.06069525507205339 %",-1.27%
same,inhibition,"Thailand/16681/1984, Concentration 99.01 uM, Number of replicates 2.0, Standard deviation 0.21107457835619564 %",-0.975%
same,inhibition,"Thailand/16681/1984, Concentration 198.0 uM, Number of replicates 2.0, Standard deviation 0.9955837043898559 %",-0.593%
O=Cc1ccc(N2CCC(C(=O)NC3CCN(C(=O)NC4CCCCC4)CC3)CC2)cc1,inhibition,[1],14.6%
CCn1c(CNC(=O)c2ccc(O)c(NC(=O)c3ccncc3F)c2C)n[nH]c1=O,inhibition,"Thailand/16681/1984, Concentration 49.5 uM, Number of replicates 2.0, Standard deviation 0.676667273520767 %",-1.12%
same,inhibition,"Thailand/16681/1984, Concentration 99.01 uM, Number of replicates 2.0, Standard deviation 0.09913961884509878 %",0.163%
same,inhibition,"Thailand/16681/1984, Concentration 198.0 uM, Number of replicates 2.0, Standard deviation 1.3423189960067998 %",0.938%
COC(=O)c1sccc1CNCc1nnc2ccccn12,inhibition,"Thailand/16681/1984, Concentration 49.5 uM, Number of replicates 2.0, Standard deviation 1.980130403023452 %",-1.81%
same,inhibition,"Thailand/16681/1984, Concentration 99.01 uM, Number of replicates 2.0, Standard deviation 1.85824235460103 %",-1.36%
same,inhibition,"Thailand/16681/1984, Concentration 198.0 uM, Number of replicates 2.0, Standard deviation 1.964289394106799 %",-1.28%
Cc1[nH]nc2ccc(C(=O)NC3(C)CN(C(=O)c4cnc(N)s4)C3)c(Cl)c12,inhibition,"Thailand/16681/1984, Concentration 49.5 uM, Number of replicates 2.0, Standard deviation 3.9991573738943345 %",-1.89%
same,inhibition,"Thailand/16681/1984, Concentration 99.01 uM, Number of replicates 2.0, Standard deviation 4.0540572265618975 %",-1.21%
same,inhibition,"Thailand/16681/1984, Concentration 198.0 uM, Number of replicates 2.0, Standard deviation 4.165455814742133 %",0.45%
